Among all 48,000 compounds or so, about 120 (0.25%) were called active. Roughly 4% stayed inconclusive and do not appear here. Calls follow the shape of the dose curve; as a rule, active = well fitted activation curve with a large enough effect; inconclusive = small, poorly fitted or top-dose-only effect, or another doubt; inactive = no such curve, though single readings can be large or run the other way. This is one part of the list.
Experiment: Primary qHTS for Identification of Small Molecule Activators of Huntingtin-Antisense Promoter Activity; also: nearly all actives have a fitted effect of over 55% in size
Settings: HEK293 HTT-AS promoter firefly luciferase reporter, 24 h; series mostly up to 57.5 µM; activity change, positive = activation: at the top concentration
Method in brief: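 HEK293 luciferase promoter-reporter cells (2,500/well) plated 24 h, then compounds added at up to 57.5 uM final for 24 h at 37 °C. Firefly luminescence by Dual-Glo, normalized to vehicle (0%) and zero RLU (-100%).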
Potency is read from the fitted curve at half-maximal effect.

Activity change, positive = activation, inactive:
COc1ccc2c(c1)c1c(c(=O)n(Cc3ccccc3)c(=O)n1CC(=O)NCc1ccccc1Cl)n2C -3.9%
CCOc1cc(CNC(=O)C2COc3ccccc3C2)cc(OCC)c1OCC (centres undefined) 5.56%
Cc1cccn2c(=O)c(/C=C(\C#N)c3nc4ccccc4[nH]3)c(Oc3ccc(C(C)(C)C)cc3)nc12 2.23% [at 11.5 µM, percent change from vehicle, -100% = no light]
CCOc1ccc(-c2ccc(NS(=O)(=O)c3ccc(C)cc3)cc2)nn1 -20.2%
COc1ccc(CCCc2nnc(SCC(=O)Nc3ccc(C)cc3)o2)cc1 -1.15% [at 11.5 µM, percent change from vehicle, -100% = no light]
O=C(CCc1nc(-c2cccs2)no1)Nc1cccc([N+](=O)[O-])c1 -13.5%
Cc1ccc(C)c(N2CCN(C(c3ccccc3)c3nnc(-c4ccccc4F)o3)CC2)c1 (centres undefined) -5.13%
Cc1ccc(OCC(=O)OCc2cc(=O)n3nc(-c4cccs4)sc3n2)cc1C 13%
Cc1ccc(-c2nc3n(n2)C(=O)CC(c2ccc(Cl)cc2)S3)cc1 (centres undefined) 4.86%
Cc1cc(C)c(NC(=O)Cn2c(=O)n(-c3ccc(CC(=O)NCC4CCCO4)cc3)c(=O)c3ccccc32)c(C)c1 (centres undefined) -3.25%
O=C(NCc1ccc(F)cc1)c1cc2n(n1)CCCN(Cc1ccc(F)cc1)C2=O 12.4%
Cc1ccc(C(=O)Nc2sc3c(c2C(=O)NCc2ccco2)CCC(C(C)(C)C)C3)cc1 (centres undefined) -0.189%
CCOc1ccc(Sc2cc(C(=O)NC(C)c3ccccc3)c3ccccc3n2)cc1 (centres undefined) -22.3%
Cc1ccsc1CN(C(=O)COc1ccc(Br)cc1)C1CCS(=O)(=O)C1 (centres undefined) -24%
Cc1ccc(C(=O)Nc2ccc(NC(=O)c3cccs3)cc2)cc1C -11.7%
CCc1cc(C(C)=NOCc2ccc(C3CCCCC3)c(C(F)(F)F)c2)ccc1CN1CC(C(=O)O)C1 -13.3%
CNC(=O)c1c(NC(=O)c2ccc(S(=O)(=O)N3CCC(C)CC3)cc2)sc2c1CCC2 -11.8%
Cc1cccc(C)c1OCC(=O)NCC1(N(C)C)CCCCC1 -3.31%
Cc1ccc(N2C(=O)CSC23C(=O)N(CC(=O)NCc2ccccc2)c2ccccc23)cc1C (centres undefined) -11.3%
COCCCNC(=O)c1ccc(NC(=O)c2nsc3ccccc23)cc1 -39%
COc1ccccc1CNC(=O)C1CCC(CNS(=O)(=O)c2ccc3c(c2)CCCC(=O)N3)CC1 (centres undefined) -3.18%
COc1ccc(CNC(=O)c2ccc(N3CCCC3)c(NC(=O)NCc3ccc(F)cc3)c2)cc1 15.2%
CCN(CC)CCNC(=O)c1ccc(Cn2c(SCc3ccccc3)nc3cccnc32)cc1 25.7%
Cc1ccc2c(Sc3ccc(Cl)cc3)c(C(=O)N3CCC(C)CC3)[nH]c2c1 -10.4%
COc1ccc(CNS(=O)(=O)c2cnc(N)nc2)c(OC)c1 -8.78%
CS(=O)(=O)c1ccc(-c2nnc(NC(=O)c3ccc4c(c3)OCCO4)o2)cc1 3.08%
CCC1CN(C(=O)N2CCC(C(=O)NCCN(CC)CC)CC2)c2cc(C)ccc2O1 (centres undefined) -1.59%
CCc1nc2ccccc2n1CCCCOc1ccc(C)cc1 -37.3%
CCOc1cc(CNC(=O)c2sc3ncnc(N(C)C4CCCCC4)c3c2C)ccc1OC -35.7%
CC(=O)c1ccc(NC(=O)Cn2cc(S(=O)(=O)Cc3cccc(Cl)c3)c3ccccc32)cc1 -31.2%
Cc1ccccc1N1CC(c2nc3ccccc3n2CCC2CCCCC2)CC1=O (centres undefined) -49%
COc1ccc(CNC(=O)CCn2cccn2)cc1 -4.07%
Cc1ccc(C(C)C)c(OCC(=O)NCC2(N(C)C)CCCCC2)c1 -23.5%
COc1ccc(CCn2cc3c(c2-c2ccc(Br)cc2)c(=O)n(C)c(=O)n3C)cc1OC -16%
COc1ccc(-c2nc(C)c(CCNC(=O)C(=O)Nc3ccccc3OC)s2)cc1 1.95%
O=C(NCCc1ccccc1Cl)c1ccc(Cn2c(=O)c3cccn3c3cccnc32)cc1 -53.1%
CCc1ccccc1NC(=O)c1c(NC(=O)c2ccccc2)sc2c1CCCC2 -2.22%
COc1ccc(S(=O)(=O)Nc2ccc3c(c2)N(C(C)=O)CCC3)cc1F -54.6%
CCOC(=O)C1CCC(CN(Cc2cccc(Br)c2)S(=O)(=O)c2ccc(C)cc2)CC1 (centres undefined) -45.6%
CCc1ccc(C(=O)c2cn(CC(=O)Nc3ccc4c(c3)OCO4)c3cc(OC)c(OC)cc3c2=O)cc1 -23.1%
O=C(COc1ccc(Cl)cc1)Nc1ccc(-c2nc3ccccc3s2)c(O)c1 -30.8%
Cc1ccc(C)c(N2CCN(C(=O)C3CCCN(S(=O)(=O)c4ccc5c(c4)oc(=O)n5C)C3)CC2)c1 (centres undefined) -33.2%
CCOc1cc(OCC)c(C(=O)CCC(=O)O)cc1OCC -4.63%
COc1cc(-c2cc(OC)c3c(C)oc(C)c3c(=O)c2)ccc1OC(=O)c1ccccc1Cl -38.6%
COc1ccc(OC)c2sc(N3CCN(C(=O)C(C)(C)C)CC3)nc12 18.3%
COc1cc(Cl)c(NC(=O)CCS(=O)(=O)c2cc3c(cc2Cl)NC(=O)CO3)c(OC)c1 -1.01%
Cc1cc(C)c2c(=O)cc(CSCC(=O)Nc3ccccc3Cl)[nH]c2c1 -9.69%
Cc1ccc(-c2cc3ncc4c(n3n2)-c2cc(C)ccc2OC4)cc1 -6.87%
Cc1cccc(Oc2nc3c(C)cccn3c(=O)c2/C=C(\C#N)c2nc3ccccc3[nH]2)c1 0%
Cc1ccc2nc(N3CCN(c4cccc(Cl)c4)CC3)c(-n3nc(C)cc3C)nc2c1 -6.82%
CCOC(=O)C1=C(CN2CCC(C)CC2)NC(=O)NC1c1ccc(F)cc1 (centres undefined) -16.3%
Cc1c(Cl)cccc1NC(=O)c1cnc2sc(N3CCOCC3)nn2c1=O -13.8%
CCN(c1ccccc1)S(=O)(=O)c1ccc(NC(=O)c2cc(=O)c3cc(C)cc(C)c3o2)cc1 6.7%
CCC(=O)N1c2ccccc2CC1C(=O)NCCc1ccccc1C (centres undefined) -12.1%
O=C(CSc1cn(CC(=O)N2CCOCC2)c2ccccc12)Nc1ccccc1F -7.45%
Cc1ccc(S(=O)(=O)Nc2ccc3c(c2)CCCN3C(=O)c2cccs2)cc1 -16.3%
Cc1cc2ccccc2n1CCNC(=O)c1cccc(Br)c1 -15.6%
O=C(Nc1ccc2nn(-c3ccccc3)nc2c1)c1cc2ccccc2o1 6.96%
COc1ccc2oc(=O)cc(CN3CCN(Cc4ccccc4)CC3)c2c1 -28.9%
COc1ccc(OC)c(CCNC(=O)CCCn2c(=O)c3cccn3c3ccccc32)c1 -11.8%
CC(C)Oc1ccc(CNC(=O)CCCN2C(=O)c3cccnc3Oc3ccc(Cl)cc32)cc1 -21.7%
CCN(C(=O)c1cc2c(s1)-c1c(C)cccc1OC2)c1ccccc1F -11.8%
CCC(=O)N1CCc2cc(Br)cc(S(=O)(=O)Nc3ccc(C)cc3C)c21 -22.8%
COc1ccc(CC(=O)N2CCc3cc(OC)c(OC)cc3C2COc2ccc(OC)cc2)cc1 (centres undefined) -19.6%
CCOC(=O)c1scc(-c2ccccc2)c1S(=O)(=O)Nc1cc(OC)cc(OC)c1 -18.5%
O=C(Cn1cc(SCc2c(F)cccc2Cl)c2ccccc21)N1CCCCCC1 14.8%
COc1ccc(-n2nc(C(=O)N(C)c3cc(C)ccc3C)c3c4ccccc4n(C)c3c2=O)cc1Cl 8.67%
Cc1ccc(C)c(NC(=O)c2cnn(-c3cccc(F)c3)c2C2CCN(C(=O)OC(C)(C)C)CC2)c1 -40.1%
CCOc1ccc(NS(=O)(=O)c2ccc(-c3cc(C)no3)s2)cc1 -35.1%
COc1ccc(-c2c(-c3ccc(O)cc3O)n[nH]c2C)cc1 -40.6% [at 116 µM, percent change from vehicle, -100% = no light]
CCCC(=O)N(c1ccc2oc3c(c2c1)CCCC3)S(=O)(=O)c1cc(C)ccc1C -9.97%
O=C1CC(c2nc3ccccc3[nH]2)CN1c1cccc(Cl)c1 (centres undefined) -23.7%
COC(=O)c1ccc(CSc2nc3c([nH]c4ccccc43)c(=O)n2-c2ccc(Cl)cc2)o1 -34.8%
CCCCNc1nc2c(c(=O)n(Cc3ccc(Cl)cc3)c(=O)n2C)n1C -30.9%
Nc1nnc2c(n1)[nH]c1ccccc12 7.19%
COc1cccc(CSc2nc3cc(C(=O)NC4CCCC4)ccc3c(=O)n2Cc2ccccc2)c1 -1.34%
O=C(CSc1nc2ccccc2n1Cc1ccccc1)N1CCN(c2ccc(F)cc2)CC1 -19.7%
COc1ccc(-n2cc(C(=O)NCc3ccccc3)c3ccccc3c2=O)cc1 -13.4%
N#Cc1cc(NC(=O)C(=O)O)c(Cl)c(NC(=O)C(=O)O)c1 -2.44%
COc1ccc(CN2CCN(Cc3cc(=O)oc4cc(C)ccc34)CC2)c(OC)c1OC -25.6%
Cc1cc(Cl)ccc1NC(=O)c1cc(S(=O)(=O)N2CCOCC2)cn1C -7.18%
Cc1cccc(C)c1OCC(C)N (centres undefined) -1.41%
O=C(c1ccc2c(c1)N(Cc1ccc(Cl)cc1)C(=O)c1ccccc1S2=O)N1CCOCC1 (centres undefined) -28.6%
Cc1cc(C)c2c(CC(=O)N3CCN(c4cccc(Cl)c4)CC3)coc2c1 -8.16%
CCc1cccc(NC(=O)Cn2c(=O)ccc3cc(S(=O)(=O)N4CCC(C)CC4)ccc32)c1 -32.6%
CCOc1ccccc1N1CC(c2nc3ccccc3n2CCOc2ccccc2)CC1=O (centres undefined) -47.6%
CCc1ccc(CNc2ncnc3c2nc2n3CCCC2)cc1 -26.2%
COc1cccc(N2CCN(C(=O)c3ccc(Cn4c(=O)[nH]c5cc(OC)c(OC)cc5c4=O)cc3)CC2)c1 -33.4%
CC1CCc2nc3ncn(Cc4ccccc4C#N)c(=O)c3cc2C1 (centres undefined) 10.4%
COc1ccc(C(CNC(=O)c2oc3ccc(Cl)cc3c2C)N2CCCCC2)cc1 (centres undefined) 8.11%
Cc1cc(C)c2oc(C(=O)Nc3sc4c(c3C(=O)NCc3ccco3)CCC4)cc(=O)c2c1 5.18%
C[C@@H]1CCN(C(=O)[C@H](CCCN=C(N)N)NS(=O)(=O)c2cccc3c2NC[C@H](C)C3)[C@@H](C(=O)O)C1 -3.66%
COc1ccc(-c2nc3scc(CCNS(=O)(=O)c4c(C)noc4C)n3n2)cc1 -29.5%

Potency, active:
Cc1ccc(-c2nnc(SCc3ccccc3C)o2)cc1 14.1 µM

— PubChem BioAssay AID1508624 (National Center for Advancing Translational Sciences (NCATS), 2021)
